Results published in PubChem BioAssay AID1508642 (National Center for Advancing Translational Sciences (NCATS), 2021).
About 200 (0.47%) of roughly 43,000 compounds were called active. Roughly 12% stayed inconclusive and do not appear here. Calls follow the shape of the dose curve; as a rule, active = well fitted cell-killing curve with a large enough effect; inconclusive = small, poorly fitted or top-dose-only effect, or effect the other way; inactive = flat fitted curve, though single readings scatter. Some of the results follow.

assay: Cell viability qHTS assay in S16 Pmp22-F2sN cells; conditions: S16 Pmp22-F2sN Schwann cells (luciferase reporters placed in the Pmp22 gene) viability, CellTiter-Glo, 24 h; series mostly up to 57.5 µM; activity change, negative = cytotoxicity: at the top concentration; also: nearly all actives have a fitted effect of over 65% in size
In short: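 Luminescence from CellTiter-Glo, read by CCD camera after a 15 min room-temperature incubation, served as the viability signal. Reporter Schwann cells (S16 Pmp22-F2sN) had been treated with pin-transferred compounds for 24 h at 37C.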
% is scaled to controls: 0 for no effect and ±100 for the full control effect.

Structure (SMILES) | activity change, negative = cytotoxicity
CCCCN(CC)CCCNC(=O)c1cn(C)c2ccc(S(=O)(=O)N(C)C3CCCCC3)cc2c1=O | inactive: -2.6%
CCOc1cc(C(=O)NCc2ccc3c(c2)CCN3C(=O)CC)cc(OCC)c1OCC | inactive: -1.4%
COc1ccc(-c2[nH]ncc2C(=O)NCc2ccc(F)cc2)cc1 | inactive: 0.0672%
Cc1ccc(C(=O)N2CCN(c3ccccc3F)CC2)cc1NC(=O)c1nsc2ccccc12 | inactive: 2.38%
CCc1cccc(NC(=O)Cn2c(=O)n(CC3CCC(C(=O)NCCc4ccccc4)CC3)c(=O)c3ccccc32)c1 (stereo not given) | inactive: -1.6%
CCC(Cn1nnc2ccccc2c1=O)NC(=O)Nc1cccc(Cl)c1 (stereo not given) | inactive: 4.79%
COc1cc(OC)c(NC(=O)Cn2c(=O)cc(C(F)(F)F)c3c(C)nn(C)c32)cc1Cl | inactive: 11.3%
Cc1ccccc1NC(=O)CSc1nc2ccc(NC(=O)COc3ccccc3F)cc2s1 | inactive: 9.88%
COCCNC(=O)C(=O)Nc1c2c(nn1-c1ccccc1)CS(=O)(=O)C2 | inactive: 1.92%
CCc1ccccc1NC(=O)c1cnn2c(C(F)(F)F)cc(-c3ccc(OC)c(OC)c3)nc12 | inactive: 5.81%
COc1cc(C(=O)Nc2ccc(-c3cc(C(F)(F)F)nn3-c3ccccc3)cc2)cc(OC)c1OC | inactive: -4.99%
COc1ccccc1CNc1nc(-c2ccco2)nn1S(=O)(=O)c1ccc(Cl)cc1 | inactive: -2.69%
Cc1cccc(NC(=O)Cn2nc(N3CCN(c4ccccc4)CC3)ccc2=O)c1C | inactive: -2.79%
CCOC(=O)c1cnn(-c2cccc(F)c2)c1C1CCNCC1 | inactive: -2.89%
COc1ccccc1OCc1ccc(C(=O)Nc2ccc(C)c(C)c2)o1 | inactive: 20.8%
CCOc1ccc(CCNC(=O)Cn2nc(C)c3c(C)n(-c4ccccc4)nc3c2=O)cc1OCC | inactive: 4.55%
CCOC(=O)c1c(C)sc(-c2c(-c3cc(C)ccc3C)[nH]c3c2c(=O)[nH]c(=O)n3C)c1O | inactive: -1.87%
COc1ccc(OC)c(CNC(=O)c2cc(-c3ccc(Cl)s3)nc3ccccc23)c1 | inactive: -6.4%
COc1cc(-c2nc3n(n2)C(c2ccc(F)cc2)C(C(N)=O)=C(C)N3)cc(OC)c1OC (stereo not given) | inactive: -2.34%
Cc1ccc(-n2nc(C(=O)NCCc3cccc(C)c3)c3c4ccccc4n(C)c3c2=O)cc1 | inactive: -3.97%
COc1ccccc1NC(=O)c1oc2ccccc2c1NC(=O)c1ccc(S(=O)(=O)N(C)C)cc1 | inactive: 29.7%
COc1ccc(-c2cc3ccc(O)c(CN4CCN(CCO)CC4)c3oc2=O)cc1OC | inactive: 4.61%
Cc1cccn2c(Nc3ccc4c(c3)OCCO4)c(-c3ccc(Br)o3)nc12 | inactive: -26.8%
O=C(Nc1cccc(Cl)c1Cl)c1cc2nc(-c3ccc4c(c3)OCO4)cc(C(F)(F)F)n2n1 | inactive: 7.37%

Structure (SMILES) | activity change, negative = cytotoxicity
CCCN(CCC)C(=O)c1c[nH]c2ccc(S(=O)(=O)Nc3cc(C)cc(C)c3)cc2c1=O | inactive: -3.43%
Cc1ccc(CNC(=O)c2cc(C3CC3)nc3c2c(C)nn3-c2cccc(Cl)c2C)cc1 | inactive: 2.53%
Cc1cc(NC(=O)C2CCC(CNS(=O)(=O)c3ccc(Br)s3)CC2)ccc1Br (stereo not given) | inactive: 21%
CCc1nn2c(-c3ccco3)ccnc2c1-c1ccccc1 | inactive: 0.218%
COc1cc(OC)c(NC(=O)c2cc3c(s2)-c2ccc(Cl)cc2SC3)cc1Cl | inactive: 8.36%
Cc1cccc(N2CCN(C(=O)C3CCN(Cc4nc(-c5ccc(Cl)cc5)oc4C)CC3)CC2)c1C | inactive: -0.138%
COc1ccc(NC(=O)CSc2nc(-c3ccc(OC)cc3)cc(=O)[nH]2)cc1 | inactive: 16.9%
CCOC(=O)c1cc(S(=O)(=O)Nc2ccc(OC(F)(F)F)cc2)[nH]n1 | inactive: -11.1%
CCC1CN(C(=O)N2CCC(C(=O)NCc3cc(OC)ccc3OC)CC2)c2ccccc2O1 (stereo not given) | inactive: -8.34%
COc1cccc(NC(=O)CN2C(=O)COc3ccc(S(=O)(=O)N4CCCCCC4)cc32)c1 | inactive: 4.41%
CCc1ccc(NC(=O)CC2C(=O)N(c3ccc(C)cc3)C(=O)N2CCc2ccncc2)cc1 (stereo not given) | inactive: -14.5%
CCOc1ccc(NC(=O)Cn2cc(C(=O)c3ccc(OCC)cc3)c(=O)c3cc4c(cc32)OCCO4)cc1 | inactive: 4.32%
Cc1ccc(CCNC(=O)c2cc3cc4cc(C)ccc4nc3s2)cc1 | inactive: 4.14%
COc1ccc(NC(=O)N(C(C)C)C2CCN(C(C)=O)CC2)c(OC)c1 | inactive: 4.73%
COc1ccccc1Cn1c(CNS(=O)(=O)c2ccc(CC(C)C)cc2)nc2cccnc21 | inactive: -8.82%
Cc1cc(SCC(=O)Nc2ccc(Cl)cc2)nc2ccccc12 | inactive: -5.08%
Cc1cccc(NC(=O)CSc2cn(CC(=O)N3CCCC3)c3ccccc23)c1C | inactive: -0.0875%
CC(=O)N1CCCc2cc(S(=O)(=O)N3CCCC(C(=O)NCc4ccccc4)C3)ccc21 (stereo not given) | inactive: -5.2%
Cc1ccc(Cn2cc(C(=O)c3ccc(C)cc3)c(=O)c3ccc(C)nc32)cc1 | inactive: -10.8%
CCc1ccc(-c2cc(C)no2)cc1S(=O)(=O)Nc1ccc(Cl)cn1 | inactive: 1.93%
Nc1c(C(=O)NCc2ccc3c(c2)OCO3)nnn1CC(=O)Nc1ccc(Br)cc1 | inactive: -2.74%
Cc1cccc(C)c1OCC(=O)N1CCC(c2nc3ccccc3o2)CC1 | inactive: 9.05%
COC(=O)c1ccc(NC(=O)N2CCC(CN3CCc4ccccc4C3)CC2)cc1 | inactive: 1.62%
CCOc1ccc(C(=O)Nc2ccc(C(=O)OCc3cc(=O)n4nc(CC)sc4n3)cc2)cc1 | inactive: 7.04%

Structure (SMILES) | activity change, negative = cytotoxicity
COc1ccc(NC(=O)CSc2ccc(-c3cccs3)nn2)cc1 | inactive: -5.18%
CCOc1ccc(-c2c(C)nn3c(-c4ccccc4)c(C(=O)NCCOC)cnc23)cc1OCC | inactive: -0.163%
O=C(COc1ccc2oc3c(c2c1)CCCC3)Nc1ccc(Cl)cc1 | inactive: 8.42%
CCOc1ccc(N(CC)S(=O)(=O)N2CCCC(C(=O)Nc3ccc(NC(C)=O)cc3)C2)cc1 (stereo not given) | inactive: 3.54%
CCOC(=O)c1ccc(NS(=O)(=O)c2cn(C)c(C)n2)cc1 | inactive: 18.4%
Cc1ccc(S(=O)(=O)N2CCCc3cc(NC(=O)c4ccc(F)c(F)c4)ccc32)cc1 | inactive: -29.3%
Cc1cc(C)c(Cn2c(=O)n(-c3ccccc3Cl)c(=O)c3c(C)c(C(=O)N(C)C)sc32)c(C)c1 | inactive: 1.17%
Cc1cn2c(=O)cc(COc3cccc(NC(=O)c4ccccc4Cl)c3)nc2s1 | inactive: 9.48%
COc1ccc(N2CCN(C(=O)c3ccc4c(c3)N(Cc3cc(C)ccc3C)C(=O)c3ccccc3S4=O)CC2)cc1 (stereo not given) | inactive: 14.3%
COc1cccc(N2CC(NC(=O)C3CCCCC3)CC2=O)c1 (stereo not given) | inactive: 1.91%
Cc1ccc(Oc2nc3c(c(=O)n(Cc4ccccc4Cl)c(=O)n3C)n2C)cc1C | inactive: -17.3%
COc1ccc(-c2cc3nc(C)c(CCC(=O)Nc4ccc(F)cc4F)c(C)n3n2)c(OC)c1 | inactive: 13.3%
COc1ccc(C(=O)Nc2nnc(S(=O)(=O)N3CCN(c4ccc(C)cc4)CC3)s2)cc1 | inactive: 4.37%
CC(Oc1ccccc1)C(=O)Nc1nnc(S(=O)(=O)N2CCCCCC2)s1 (stereo not given) | inactive: 6.01%
Cc1ccccc1C(=O)Nc1cccc(-c2cn3cccnc3n2)c1 | inactive: 18.1%
COc1ccc(CNc2nc(-c3ccco3)nn2C(=O)CC(C)C)cc1 | inactive: 2.67%
CCCNc1ccc(-c2nc(-c3ccco3)no2)cc1[N+](=O)[O-] | inactive: 12.4%
Cc1cc(S(=O)(=O)n2ccnc2C(C)C)cc([N+](=O)[O-])c1C | inactive: -4.93%
O=C(Nc1cc(C(F)(F)F)ccc1Cl)c1ccc2c(c1)CCN2S(=O)(=O)c1ccccc1 | inactive: 4.6%
Cc1ccc(CCNC(=O)c2ccc(CNS(=O)(=O)c3ccc(C)cc3)cc2)cc1 | inactive: 15.8%
Cc1ccc(Cl)cc1N1CCN(C(=O)c2cn(CC(C)C)c(=O)c3c2c2ccccc2n3C)CC1 | inactive: -27.5%
CCOC(=O)c1nc(Nc2ccc(Cl)cc2)c2c(C)noc2n1 | inactive: 0.0628%
O=C(CN1C(=O)C2CCCCN2c2ccc(C(=O)N3CCCC3)cc21)NCc1ccccc1F (stereo not given) | inactive: -1.72%
CN(c1ccccc1)C(CNS(=O)(=O)c1ccccc1)c1ccccc1 (stereo not given) | inactive: -1.22%

Structure (SMILES) | activity change, negative = cytotoxicity
CCCCN(CC)CCNc1ncnc2onc(-c3ccc(Cl)cc3)c12 | inactive: 16.9%
Cc1ccc(N2C(=O)CS(=O)(=O)C23C(=O)N(Cc2ccccc2F)c2ccccc23)cc1Cl (stereo not given) | inactive: 27.5%
CNS(=O)(=O)c1cn(CC(=O)N2CCN(c3ccc(C)cc3C)CC2)cc1S(=O)(=O)NC | inactive: 0.956%
COc1ccc(Cc2nnc(C(=O)NCCCN3CCN(c4ccccc4F)CC3)o2)cc1OC | inactive: -16%
CC(C)COc1ccc(Nc2ncnc3ccc(Br)cc23)cc1 | inactive: -4.67%
COC(=O)c1sccc1S(=O)(=O)N(CC(=O)NCc1ccc(F)cc1)c1ccc(C)c(C)c1 | inactive: 7.63%
Cc1ccc(CN(Cc2ccco2)C(=O)c2cccc(C)c2)cc1 | inactive: 4.65%
CNS(=O)(=O)c1cn(CC(=O)Nc2cccc(C(F)(F)F)c2)cc1S(=O)(=O)NC | inactive: -14.3%
Cc1cccc(NC(=O)NC2COc3ccccc3C2)c1C (stereo not given) | inactive: -1.84%
COc1ccc(OC)c(-c2noc(N3CCN(c4cc(Cl)ccc4C)CC3)n2)c1 | inactive: 4.42%
Cc1ccc(C)c(NC(=O)CSc2nnc(C)n3c2cc2occc23)c1 | inactive: -3.51%
COc1cccc(C(=O)c2sc(Nc3ccc(F)c(Cl)c3)nc2N)c1 | inactive: -6.78%
Cn1c(=O)c2sccc2n2c(CCC(=O)Nc3ccc(F)cc3)nnc12 | inactive: -4.57%
CCC(C(=O)OC)n1nnc2sc(-c3ccccc3)cc2c1=O (stereo not given) | inactive: -3.63%
CCOC(=O)c1ccc(CN(Cc2ccc(Br)cc2)S(=O)(=O)c2cccc(C(F)(F)F)c2)cc1 | inactive: -0.142%
COc1ccc2c(c1)c(=O)c(C(=O)c1ccc(C)cc1)cn2Cc1ccccc1F | inactive: -13.1%
COc1ccccc1NC(=O)CN1CCN(CC(=O)Nc2ccc(F)c(F)c2)CC1 | inactive: -12.6%
COC(=O)c1ccc(Cl)cc1NC(=O)Nc1nnc(N(C)Cc2ccccc2)s1 | inactive: -3.37%
CC(CNC(=O)CCS(=O)(=O)c1cc2c(cc1Cl)NC(=O)CO2)c1ccccc1 (stereo not given) | inactive: 14.7%
CCOC(=O)c1ccccc1NC(=O)CCc1nc(-c2ccc(C)cc2)no1 | inactive: 2.98%
CC(Sc1oc(-c2cccs2)nc1S(=O)(=O)c1ccccc1)c1ccccc1 (stereo not given) | inactive: 7.66%
Cn1nccc1C(=O)NCc1ccc2c(c1)CCN2C(=O)c1ccc(Cl)cc1 | inactive: -1.01%
COc1ccc(C(CNC(=O)COc2cc(C)cc(C)c2)N2CCOCC2)cc1 (stereo not given) | inactive: 9.39%
